# Source: PubChem BioAssay AID540317 (National Center for Advancing Translational Sciences (NCATS), 2011)
# In all, about 390,000 compounds went through this assay and about 2,200 (0.56%) were called active. Inconclusive means that the source gave no clear call. Such entries were picked first, then a sample of the others. The call rests on the fitted dose curve; in most records, active means well fitted inhibition curve with a large enough effect; inconclusive means small, poorly fitted or top-dose-only effect; inactive means no such curve, though single readings can be large or run the other way. Where the call is inconclusive, the potency comes from a doubtful curve fit.
# Molecular target: Chromobox protein homolog 1 (Homo sapiens) (UniProt P83916)
# Test: HTS for Inhibitors of HP1-beta Chromodomain Interactions with Methylated Histone Tails; further: nearly all actives have a fitted effect of over 70% in size
# Details: AlphaScreen HP1-beta / biotin-H3K9me3 peptide binding; series mostly up to 114 µM; activity change, negative = inhibition: at the top concentration
# Summary of the method: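 Compound inhibition of the preformed complex between 50 nM HP1-beta and 50 nM biotinylated H3K9me3 peptide was read by AlphaScreen. Buffer was PBS pH 7.4 with 0.01% Tween-20. Incubations ran 30 min at room temperature, with 10 ug/mL donor/acceptor beads.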
# Potency means the concentration at half of the fitted maximal effect; tags describe the fitted curve by direction and shape.
# Sequence of UniProt P83916 (P83916 whole entry, looked up): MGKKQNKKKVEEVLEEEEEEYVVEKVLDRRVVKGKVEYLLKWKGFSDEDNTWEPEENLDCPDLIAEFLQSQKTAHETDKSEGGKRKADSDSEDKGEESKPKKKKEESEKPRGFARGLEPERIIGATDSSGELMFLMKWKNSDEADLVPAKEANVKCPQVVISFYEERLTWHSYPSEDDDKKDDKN
SMILES,"activity change, negative = inhibition",Potency
CCCCc1ccc(NS(=O)(=O)c2cccc(C(=O)N3CCNC(=O)C3)c2)cc1,inactive: 29%,–
Cc1ccc(S(=O)(=O)N2CCOCC2)cc1NC(=O)Cn1nc(C)c([N+](=O)[O-])c1C,inactive: 30.4%,–
Cc1ccccc1NC(=S)NC1CCCC1,inactive: 10.6%,–
O=C(CNCc1ccco1)Nc1ccc(N2CCCCCC2)cc1,–,active: 39.8 µM
CC(C)CSc1nnc2[nH]c(=O)cc(N)n12,inactive: 19.3%,–
CC1CN(C2CCN(S(=O)(=O)c3ccc(F)cc3)CC2)CC(C)O1 (stereo not given),–,"inconclusive: 70.8 µM [inhibitor, single point]"
COc1ccc2c(c1)NC(c1ccc(Cl)cc1)=NC(c1cccs1)=N2,–,"inconclusive: 17.8 µM [inhibitor, single point]"
COc1ccc(Cl)cc1S(=O)(=O)NC(C)C(=O)NCc1ccc2c(c1)OCO2 (stereo not given),inactive: 7.82%,–
Cc1sc(NC(=O)Nc2ccccc2)c(C(N)=O)c1C,–,"inconclusive: 12.6 µM [inhibitor, full curve]"
COC(=O)c1c(NC(=O)C2CCCCC2C(=O)O)sc2c1CCCCC2 (stereo not given),inactive: -11.1%,–
COc1ccc(O)c(/C=N/N=C2/C(=O)Nc3ccccc32)c1,–,"inconclusive: 12.6 µM [inhibitor, full curve, poor fit]"
COc1ccc(N2CCN(C(=O)c3[nH]c4ccc(OC)cc4c3C)CC2)cc1,–,"inconclusive: 25.1 µM [inhibitor, full curve]"
CCOc1ccc2c(c1)NC(c1ccc(OCC)c(OCC)c1)=NC(c1ccc(F)cc1)=N2,–,"inconclusive: 12.6 µM [inhibitor, full curve, poor fit]"
Cc1ccc(-c2csc(NS(=O)(=O)c3cccc(F)c3)n2)o1,inactive: -32%,–
Cc1nn(C)cc1C(=O)Nc1cc(Oc2ccc(Cl)cc2)cc([N+](=O)[O-])c1,–,"inconclusive: 39.8 µM [inhibitor, full curve]"
Cc1ccc(CNC(=O)CCS(=O)(=O)c2ccc(Br)cc2)cc1,–,active: 7.08 µM
CC1=C(C(=O)Nc2ccccn2)C(c2ccccc2)n2ncnc2N1 (stereo not given),inactive: 29.1%,–
CCc1ccc(NC(=S)Nn2cnnc2)cc1,–,"inconclusive: 7.08 µM [inhibitor, full curve]"
CCc1ccc(N(CC(=O)NCc2ccc3c(c2)OCO3)C(=O)c2csnn2)cc1,–,"inconclusive: 89.1 µM [inhibitor, single point]"
O=S(=O)(Nc1ccc(-n2cccc2)cc1)c1ccc(Cl)cc1Cl,–,"inconclusive: 15.8 µM [inhibitor, full curve]"
CN(C)c1ccc(C(CNC(=O)c2ccc(C#N)cc2)c2c[nH]c3ccccc23)cc1 (stereo not given),–,"inconclusive: 56.2 µM [inhibitor, partial curve, poor fit]"
COc1ccc(NC(=O)Cn2c(=O)n(-c3ccc(OC)cc3)c(=O)c3sc4ccccc4c32)cc1,inactive: 58.9%,–
COc1ccc(C(=O)Nc2ccc(-c3nc4ccccc4s3)c(Cl)c2)cc1Cl,inactive: 38.8%,–
CCN(CC)N=Nc1ccc(S(=O)(=O)N2CCSC2C(=O)O)cc1 (stereo not given),inactive: 10.1%,–
Cc1ccccc1C(OCCN(C(C)C)C(C)C)c1ccccc1 (stereo not given),–,"inconclusive: 28.2 µM [inhibitor, partial curve]"

SMILES,"activity change, negative = inhibition",Potency
Fc1ccc(Nc2cccc3nccnc23)cc1,–,"inconclusive: 14.1 µM [inhibitor, partial curve, poor fit]"
Cc1c(NC(=O)c2c(N)sc3c2CCCC3)c(=O)n(-c2ccccc2)n1C,inactive: 23.8%,–
Cc1ccc(OCC(=O)N/N=C2\CC(=O)CC(C)(C)C2)c(Br)c1,inactive: 34.3%,–
COc1ccc(NC(=O)Cn2c(=O)oc3cc(S(=O)(=O)N4CCCC4)ccc32)cc1OC,inactive: 4.53%,–
COc1ccc(C(=O)NCC(c2cccs2)N2CCc3ccccc32)cc1OC (stereo not given),–,"inconclusive: 50.1 µM [inhibitor, partial curve]"
CC1CCN(c2ccc(C(=O)OCC(=O)NCCN3C(=O)CSC3=O)cc2[N+](=O)[O-])CC1,–,"inconclusive: 70.8 µM [inhibitor, partial curve]"
COc1cc2c3c(c1)C1(C(=O)N3C(C)(C)C=C2C)C(C#N)=C(N)Oc2cc(O)ccc21 (stereo not given),–,"inconclusive: 11.2 µM [inhibitor, partial curve]"
Nc1nc2nn(-c3ccccc3)nc2c(=O)[nH]1,inactive: 20.7%,–
CC1CC(=O)Nc2ccccc2N1C(=O)Nc1ccc(F)cc1 (stereo not given),inactive: 32.4%,–
COc1cc(/C=N/Nc2nc3ccccc3s2)cc([N+](=O)[O-])c1O,–,"inconclusive: 12.6 µM [inhibitor, full curve]"
Cc1cccc(C)c1NC(=O)CCSCCc1ccccn1,–,"inconclusive: 89.1 µM [inhibitor, single point]"
COCc1[nH]c(=S)c(C#N)cc1C(=O)OC,–,"inconclusive: 44.7 µM [inhibitor, partial curve]"
Brc1ccc(C2Nc3cccc4cccc(c34)N2)o1,–,"inconclusive: 20 µM [inhibitor, full curve]"
CC(C)C(=O)N(Cc1cc(=O)[nH]c2ccccc12)c1ccccc1,inactive: 14.9%,–
CCOc1ccc(NC(=O)c2ccc3nc(C(C)C)oc3c2)cc1,inactive: 27.6% [at 57 µM],–
O=C1C(NS(=O)(=O)c2ccc(Br)cc2)=C(N2CCCCC2)C(=O)c2ccccc21,–,active: 10 µM
CCCOP(=O)(c1ccc(N(C)C)cc1)C(Nc1ccccc1)c1ccc(C)cc1 (stereo not given),–,"inconclusive: 70.8 µM [inhibitor, partial curve]"
COc1ccc2[nH]cc(CCNC(=O)COc3ccc4ccc(=O)oc4c3)c2c1,inactive: -0.874%,–
CCCCCC(=O)N/N=C/c1ccc(N(C)C)cc1,–,"inconclusive: 22.4 µM [inhibitor, partial curve, poor fit]"
O=C(NC(=S)Nc1ccc(N2CCCCC2)cc1)c1cccs1,–,active: 39.8 µM
CCN(CC)CCC(c1ccc(OC)cc1)c1c(O)cc(OC)cc1OC (stereo not given),–,inactive
Cc1ccc(-c2cc(C(=O)Nc3ccc(S(=O)(=O)Nc4nc(C)cc(C)n4)cc3)c3ccccc3n2)cc1,–,"inconclusive: 35.5 µM [inhibitor, single point]"
NC(=O)c1ccc([N+](=O)[O-])cc1SCc1ccccc1,inactive: 17.3%,–
CCCCN(C)C(=O)C1CCN(Cc2ccccn2)CC1,–,"inconclusive: 14.1 µM [inhibitor, partial curve, poor fit]"
O=C(COc1ccccc1Cl)Nc1nc(-c2ccc(F)cc2)ns1,inactive: 31.1%,–

SMILES,"activity change, negative = inhibition",Potency
O=C(CSc1nccn1-c1ccc(F)cc1)Nc1cccc2ccccc12,–,"inconclusive: 12.6 µM [inhibitor, partial curve]"
CC(C)CC1CC(=O)OC1(C)C(=O)CSc1nc2ccccc2s1 (stereo not given),inactive: 51.6%,–
OC(COCc1ccco1)CN1CCN(C(c2ccccc2)c2ccccc2)CC1 (stereo not given),–,active: 28.2 µM
CC1CC(C)CN(C(=O)CCn2c(=O)oc3ccccc32)C1 (stereo not given),inactive: 32.2%,–
CCN(CC)S(=O)(=O)c1ccc2c(c1)N(CC(=O)NCCCN1CCN(c3cc(C)ccc3C)CC1)C(=O)CO2,inactive: 26.3%,–
CCNC(=O)C1CCCN(c2nn3cc(-c4ccc(C)cc4)nc3s2)C1 (stereo not given),inactive: 17.7%,–
CCOCc1[nH]c(=S)[nH]c(=O)c1Cc1ccc(OCC)cc1,inactive: 3.15%,–
CCc1n[nH]c(=S)n1/N=C/c1ccccn1,–,"inconclusive: 89.1 µM [inhibitor, single point]"
CCOc1cc(/C=C2\C(=O)N(c3nc(-c4ccc(Br)cc4)cs3)N=C2c2ccccc2)ccc1O,–,"inconclusive: 5.01 µM [inhibitor, full curve]"
COc1ccc(-n2cc(-c3ccccc3)c3c(N4CCOCC4)ncnc32)cc1,inactive: -14%,–
O=C(Nc1ccccc1[N+](=O)[O-])C1COc2ccccc2O1 (stereo not given),–,"inconclusive: 70.8 µM [inhibitor, partial curve]"
COc1ccc(NCc2ccc3c(c2)OCO3)cc1Cl,–,"inconclusive: 50.1 µM [inhibitor, partial curve]"
COc1ccc2nc(-n3c(O)c(C4=c5ccccc5=NC4=O)[nH]c3=S)sc2c1,–,"inconclusive: 12.6 µM [inhibitor, partial curve, poor fit]"
S=c1nc(-c2cc(Cl)ccc2Cl)[nH][nH]1,–,"inconclusive: 50.1 µM [inhibitor, partial curve]"
CC1(C)CC(N=Cc2c(O)n(Cc3ccc4c(c3)OCO4)c(=O)c3ccccc23)CC(C)(C)N1,–,"inconclusive: 44.7 µM [inhibitor, partial curve, poor fit]"
CCN1C(=O)/C(=C2/C=Cc3cc(C)ccc3N2CC)N(C)C1=S,–,"inconclusive: 50.1 µM [inhibitor, partial curve, poor fit]"
COc1cc(-c2nn3c(COc4ccccc4)nnc3s2)cc(OC)c1OC,–,"inconclusive: 14.1 µM [inhibitor, full curve, poor fit]"
CC(C)CC(=O)n1nc(-c2ccco2)nc1NCc1ccc(Cl)cc1,inactive: 18.6%,–
CCOC(=O)C1CCCN(c2oc(-c3ccc(OC)cc3)nc2C#N)C1 (stereo not given),–,"inconclusive: 15.8 µM [inhibitor, full curve]"
O=C(CNC(=O)c1ccccc1O)N/N=C/c1cc(Br)ccc1OC(=O)/C=C/c1ccco1,inactive: 11.8%,–
Cc1ccc(NC(=O)CN2C(=O)S/C(=C/c3ccc(O)c([N+](=O)[O-])c3)C2=O)cc1C,–,"inconclusive: 15.8 µM [inhibitor, full curve]"
O=C(Nc1nnc(-c2ccncc2)o1)c1ccc2ccccc2c1,inactive: 37.9%,–
Cc1ccc(SCCN2CCN(Cc3ccccc3)CC2)cc1,–,"inconclusive: 25.1 µM [inhibitor, partial curve, poor fit]"
Cc1ccc(C)c(S(=O)(=O)N2CCN(C(=O)Cc3ccccc3)CC2)c1,inactive: 22.5%,–
COc1ccc(N2CCN(C(=O)c3ccc(N(C)S(=O)(=O)c4ccc(OC)cc4)cc3)CC2)cc1,–,"inconclusive: 28.2 µM [inhibitor, full curve]"
